# Data reported in the supplement of paper PMC7826260.
# Some of the results follow. One pool of 16,384 single-stranded DNAs met each Rep nickase domain in vitro (3 µM enzyme, 1 h, 37 °C); shown is the middle of each 90-letter strand. A value is the log2 ratio of uncut reads to the pool without enzyme; more negative means more cut, near 0 not cut, and no call is made. Counts are relative to all reads; values above 0 arise when much of the pool is cut.
# Tests used:
# Test in all cases: uncleaved DNA left, log2 of reads against the no-enzyme library (log2 ratio); higher = less cleavage (more negative = more Rep cleavage of the k-mer); sequences stand for … in CTCGTCCG…ACCGGAGA
# [1] = tested on: T1, Rep nickase domain of Muscovy duck circovirus
# T1 sequence (Rep 1-111, printed without the tag): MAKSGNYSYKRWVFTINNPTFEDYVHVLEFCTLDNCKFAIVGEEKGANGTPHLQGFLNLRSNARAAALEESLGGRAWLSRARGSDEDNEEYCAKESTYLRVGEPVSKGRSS
# Method: (§1)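 A pool of 90-nt single-stranded DNAs with seven random bases just before the constant AC of the nick site (name = the seven bases) was cut by 3 µM recombinant His6-SUMO-tagged Rep nickase domain (300 nM DNA, 50 mM HEPES pH 8.0, 50 mM NaCl, 1 mM MnCl2, 1 h, 37 °C, three replicates). Uncut DNA was amplified and sequenced.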
# [2] = tested on: T2, Rep nickase domain of banana bunchy top virus
# T2 sequence (Rep 1-94, printed without the tag): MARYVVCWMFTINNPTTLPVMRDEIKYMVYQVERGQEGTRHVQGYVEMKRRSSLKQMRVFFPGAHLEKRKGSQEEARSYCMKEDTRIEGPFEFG
# Method: as §1
# [3] = tested on: T3, Rep nickase domain of cabbage leaf curl virus
# T3 sequence (Rep 1-116, printed without the tag): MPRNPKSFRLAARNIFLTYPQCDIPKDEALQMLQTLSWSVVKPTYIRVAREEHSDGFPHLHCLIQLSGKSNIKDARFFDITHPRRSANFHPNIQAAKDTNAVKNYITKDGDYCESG
# Method: as §1
# [4] = tested on: T4, Rep nickase domain of chickpea chlorotic dwarf virus
# T4 sequence (Rep 1-124, printed without the tag): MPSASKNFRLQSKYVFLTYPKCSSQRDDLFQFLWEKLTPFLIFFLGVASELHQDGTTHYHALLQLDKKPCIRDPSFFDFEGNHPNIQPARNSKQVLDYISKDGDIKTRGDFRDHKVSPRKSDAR
# Method: as §1
# [5] = tested on: T5, Rep nickase domain of faba bean necrotic yellows virus
# T5 sequence (Rep 1-98, printed without the tag): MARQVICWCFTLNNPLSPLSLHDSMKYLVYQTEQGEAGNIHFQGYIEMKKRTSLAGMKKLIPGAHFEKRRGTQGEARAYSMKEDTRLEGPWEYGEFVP
# Method: as §1
# [6] = tested on: T6, Rep nickase domain of maize striate mosaic virus
# T6 sequence (Rep 1-117, printed without the tag): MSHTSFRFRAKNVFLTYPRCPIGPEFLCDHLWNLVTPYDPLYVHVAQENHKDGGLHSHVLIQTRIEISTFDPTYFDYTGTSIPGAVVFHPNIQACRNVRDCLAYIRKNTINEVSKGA
# Method: as §1
# [7] = tested on: T7, Rep nickase domain of porcine circovirus 2
# T7 sequence (Rep 2-116, printed without the tag): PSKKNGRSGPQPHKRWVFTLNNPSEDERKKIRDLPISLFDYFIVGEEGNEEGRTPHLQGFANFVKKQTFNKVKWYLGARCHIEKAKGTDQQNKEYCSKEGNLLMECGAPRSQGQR
# Method: as §1
# [8] = tested on: T8, Rep nickase domain of tomato yellow leaf curl virus
# T8 sequence (Rep 1-136, printed without the tag): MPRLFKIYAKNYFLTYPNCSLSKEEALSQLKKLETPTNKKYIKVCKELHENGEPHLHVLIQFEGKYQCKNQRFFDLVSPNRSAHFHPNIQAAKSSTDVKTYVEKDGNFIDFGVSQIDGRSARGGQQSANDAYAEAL
# Method: as §1
# [9] = tested on: T9, Rep nickase domain of wheat dwarf virus
# T9 sequence (Rep 1-137, printed without the tag): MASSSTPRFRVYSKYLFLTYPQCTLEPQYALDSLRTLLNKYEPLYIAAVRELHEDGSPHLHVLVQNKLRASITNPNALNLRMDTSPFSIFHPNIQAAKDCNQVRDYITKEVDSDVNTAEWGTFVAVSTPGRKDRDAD
# Method: as §1
Sequence,uncleaved DNA left (log2) [1],uncleaved DNA left (log2) [2],uncleaved DNA left (log2) [3],uncleaved DNA left (log2) [4],uncleaved DNA left (log2) [5],uncleaved DNA left (log2) [6],uncleaved DNA left (log2) [7],uncleaved DNA left (log2) [8],uncleaved DNA left (log2) [9]
CTAAGGC,-0.0298,-0.0425,-1.24,-1.87,-0.000445,-0.667,0.156,0.0217,-0.0414
ATGTCCC,-0.108,0.00327,0.326,1.04,-0.103,0.968,-0.234,-0.133,-0.026
CTGTCTG,0.0458,0.0687,0.0843,0.548,-0.0164,0.544,0.0364,-0.1,0.202
CGAGGTT,0.163,0.194,0.361,0.375,0.095,1.37,0.228,0.075,0.14
CTGGCAG,0.021,-0.0943,-0.561,-0.426,0.0812,-0.866,0.134,-0.145,-0.145
ATTGCAT,-0.0235,0.0946,-0.596,-0.512,0.114,-0.855,0.0375,0.19,-0.0123
TGCCGCA,-0.0538,-0.219,-0.245,-0.5,-0.0447,-0.741,-0.0342,0.0177,-0.0723
ATAGAAG,0.0372,0.053,-0.689,-0.331,0.106,-1.04,0.247,0.156,0.0202
CAGCGAT,0.209,0.2,0.386,1.43,0.256,1.67,0.208,0.00143,0.0909
AACTTAG,-0.0128,0.067,-0.721,-0.555,0.0722,-1.27,0.158,0.119,-0.0177
GCCCATT,-0.00281,0.0617,0.0481,-0.0715,-0.239,0.403,-0.316,-0.0987,0.0264
TTGAACT,-0.000197,-0.0797,-0.116,-2.5,0.00444,-0.232,-0.861,-0.0216,-0.0711
TGAGTCC,-0.0578,0.0216,0.185,0.145,-0.0342,0.374,-0.228,-0.0401,-0.123
GCTGCAA,-0.0502,0.129,0.0251,0.442,0.0127,-0.0299,0.144,0.0175,0.102
TAACAAT,-0.144,0.0525,-3.29,-3.03,0.0929,-0.735,-0.311,0.135,-1.49
GATACCG,-0.0208,-0.0437,-0.397,-0.00339,-0.00971,-0.611,0.222,-0.079,-0.0285
TGAGAGA,0.135,0.0539,0.544,0.815,0.0517,0.314,0.188,0.132,0.109
GCCAAGC,-0.0302,-0.148,0.175,0.738,-0.087,0.285,0.0303,-0.154,-0.0173
ACAACTC,-0.142,-0.0384,-0.261,-0.677,-0.0974,-0.772,-0.027,-0.163,-0.0201
GACATGG,0.163,0.13,0.114,0.489,0.0765,-0.127,0.205,0.0393,0.0984
CTACCCT,-0.206,-0.134,-0.259,-2.46,-0.0557,-0.487,-1.18,-0.0824,-0.223

Sequence,uncleaved DNA left (log2) [1],uncleaved DNA left (log2) [2],uncleaved DNA left (log2) [3],uncleaved DNA left (log2) [4],uncleaved DNA left (log2) [5],uncleaved DNA left (log2) [6],uncleaved DNA left (log2) [7],uncleaved DNA left (log2) [8],uncleaved DNA left (log2) [9]
GGGTTAG,0.0986,0.0627,0.684,1.68,-0.0135,1.77,0.305,-0.025,0.132
GGGACCT,-0.162,0.0449,0.79,1.96,-0.0915,2.24,0.0787,-0.08,0.0468
ACGGTTA,0.11,0.0322,-0.228,-0.635,-0.0178,0.141,-0.205,-0.0428,-0.123
CTAGATC,0.0222,0.0596,0.157,-0.0719,-0.106,-0.4,0.23,-0.0207,0.107
TGATCTT,-3,-0.045,-0.00519,-1.95,0.0359,0.393,-3.04,0.0987,-0.189
ACCTAGC,-0.113,0.0224,-0.583,-0.553,-0.0339,-1.06,0.0915,-0.0771,-0.0745
GTAACTG,-0.0083,-0.00315,-0.035,0.148,-0.0792,1.4,0.045,-0.0595,0.0414
TCTTTGT,-0.192,-0.153,-0.194,-0.702,-0.0583,-1.11,-0.824,-0.127,-0.0796
GGGCTAT,-0.163,0.151,0.805,1.96,-0.0295,2.2,0.15,0.0749,0.047
TCTCAAC,-0.0577,0.0448,0.164,-1.46,-0.116,-0.412,-0.0183,-0.0137,-0.0517
AGTACGA,-0.0349,-0.047,-0.0258,-0.165,-0.0124,-0.663,0.0152,0.0313,-0.0358
GTAATCA,-0.0603,0.134,0.244,0.844,-0.00288,1.64,0.0544,0.125,0.0916
CATTACC,-0.0766,-0.0482,-0.417,-2.25,0.0139,-0.979,-1.71,0.00164,-0.0905
GGCGTCA,-0.164,-0.0106,0.414,1.15,-0.0962,1.6,0.0176,-0.0702,0.00262
CTATAAC,-0.0474,-0.0619,-0.567,-1.99,-0.0565,-0.884,-0.0481,-0.197,-0.0733
TACCACC,-0.0859,-0.1,-0.185,-1.6,-0.139,-0.54,-0.82,-0.0443,-0.0559
CAAGACC,-0.0682,-0.0544,-0.0557,0.00329,-0.0233,-0.493,-0.0164,-0.123,-0.129
GTACTCG,-0.0504,0.0135,-0.568,-0.817,-0.0426,-0.839,0.0361,0.0605,-0.0353
AAGGTCG,-0.149,-0.103,-0.898,-0.524,-0.104,-1.03,0.000775,-0.0858,-0.212
GTCATAT,0.0317,0.0597,0.319,0.957,-0.0394,1.63,0.0649,0.0476,0.147
TTAAGCG,0.0099,-0.0257,-0.83,0.528,-0.0444,-0.754,0.112,-0.00152,-0.0647

Sequence,uncleaved DNA left (log2) [1],uncleaved DNA left (log2) [2],uncleaved DNA left (log2) [3],uncleaved DNA left (log2) [4],uncleaved DNA left (log2) [5],uncleaved DNA left (log2) [6],uncleaved DNA left (log2) [7],uncleaved DNA left (log2) [8],uncleaved DNA left (log2) [9]
CTTTGCT,-0.327,-0.000782,-0.771,-1.13,0.0233,-1.17,-0.436,-0.000397,-0.16
ATGTCAA,-0.0874,0.0361,0.0124,0.0759,0.00191,-0.435,0.0202,0.042,-0.0827
GCGTCGC,-0.209,-0.298,-0.463,-0.353,-0.17,-0.553,-0.138,-0.144,-0.336
TCGAGCG,0.131,0.153,-0.0515,0.285,0.124,-0.509,0.196,0.0819,-0.0157
GAGCAGC,0.133,0.0526,0.241,0.833,0.0487,0.429,0.295,0.00628,0.088
ATAAGGG,0.0689,0.0325,-0.195,0.654,0.0928,-0.148,0.165,0.0199,-0.00118
ACCCCGA,-0.016,-0.032,-0.438,-0.432,-0.00245,-1.2,0.0418,-0.0341,-0.0788
TATCTTT,-0.656,-0.259,-1.56,-2.75,0.082,-0.523,-2.98,0.059,-0.276
GATCTAC,0.0746,0.0214,0.279,-0.0671,0.125,1.02,0.203,0.132,0.26
GCTGGGA,0.0792,-0.0153,0.129,0.639,-0.11,0.602,0.0874,-0.0214,-0.131
ACTGAAC,0.0263,-0.0553,-0.0617,0.55,-0.0253,0.949,0.0457,-0.112,0.0694
CCTATAA,0.0558,0.0698,-0.165,-0.2,0.0346,-0.724,-0.0103,0.029,0.108
AATGTAA,0.0972,0.002,-0.214,-0.374,0.0479,-0.437,-0.0415,-0.0486,-0.0125
TCTTAGT,-2.02,-0.134,-0.0619,-0.901,-0.0681,-0.913,-3.53,0.0439,-0.0521
CAGAATT,-0.0956,-3.4,-0.617,-2.69,-2.46,-0.393,-3.94,0.00172,-0.139
CAGTCCA,-0.114,-0.429,-0.15,-2.19,-0.614,-0.364,-2.86,0.072,0.0769
GCGCTTA,-0.096,-0.0555,0.0191,-0.22,-0.0121,0.18,-0.0697,-0.00954,-0.0817
GGGGTTA,-0.0194,-0.00503,0.697,1.63,-0.079,2.05,0.0848,-0.0381,0.0147
CTGATTG,-0.0176,-0.0764,-0.3,0.307,0.0826,-0.326,-0.0156,-0.0387,-0.0144
